Test results taken from PubChem BioAssay AID488969 (Vanderbilt High Throughput Screening Facility, 2010).
The full ranking holds about 110,000 compounds; the median of “z-score” is about -0.1, and the highest 2% start at about 2. The list shows a part of the results. Activity calls are given as the source filed them.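 How the source made its calls: active means z-score in the third read window above 3 or below -3; inactive means the rest.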

Molecular target: Metabotropic glutamate receptor 8 (Rattus norvegicus) (UniProt P70579)
Assay: mGluR8 Gi/Go-coupled signaling modulation – cell-based, rat, thallium flux, HTS, primary screen (AID 488969)
Conditions: HEK293 rat mGluR8, GIRK (G protein-gated inwardly rectifying potassium channel) thallium flux, FluoZin2; at 10 µM; stronger effect = higher value

Sequence of UniProt P70579 (P70579 whole entry, looked up): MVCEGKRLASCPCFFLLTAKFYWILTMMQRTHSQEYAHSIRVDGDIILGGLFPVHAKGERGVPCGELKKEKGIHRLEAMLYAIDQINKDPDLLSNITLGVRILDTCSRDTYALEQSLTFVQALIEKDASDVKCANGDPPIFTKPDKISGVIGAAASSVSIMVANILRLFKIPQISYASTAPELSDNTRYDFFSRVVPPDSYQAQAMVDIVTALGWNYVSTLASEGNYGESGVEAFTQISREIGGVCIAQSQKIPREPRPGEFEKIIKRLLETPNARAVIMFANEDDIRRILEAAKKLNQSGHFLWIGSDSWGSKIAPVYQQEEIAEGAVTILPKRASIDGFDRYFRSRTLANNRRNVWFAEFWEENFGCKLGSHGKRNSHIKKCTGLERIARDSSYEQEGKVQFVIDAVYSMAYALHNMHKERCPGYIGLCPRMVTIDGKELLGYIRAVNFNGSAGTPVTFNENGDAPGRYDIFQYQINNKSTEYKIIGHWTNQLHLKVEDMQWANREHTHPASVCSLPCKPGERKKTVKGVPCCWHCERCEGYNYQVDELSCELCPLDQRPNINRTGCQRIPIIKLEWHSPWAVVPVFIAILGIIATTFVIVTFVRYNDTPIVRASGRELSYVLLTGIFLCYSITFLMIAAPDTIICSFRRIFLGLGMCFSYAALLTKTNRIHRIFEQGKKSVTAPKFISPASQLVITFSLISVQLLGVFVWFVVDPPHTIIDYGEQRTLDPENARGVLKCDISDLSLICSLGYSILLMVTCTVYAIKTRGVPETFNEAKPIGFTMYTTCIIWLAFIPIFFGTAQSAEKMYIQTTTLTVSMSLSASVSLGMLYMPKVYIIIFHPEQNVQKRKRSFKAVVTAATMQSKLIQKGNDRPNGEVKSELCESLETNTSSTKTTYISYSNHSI

Row | Structure (SMILES) | z-score
1 | CCN(CC)CC(=O)Nc1ccc(Cl)cc1C(=O)c1ccccc1 | -0.272
2 | O=C1CN=C(c2ccccc2)c2oc3ccc(Br)cc3c2N1 | 0.649
3 | CCOc1ccc(-n2c(O)c(C=NCCN(CC)CC)c(=O)[nH]c2=O)cc1 | 0.557
4 | CCCCC(=O)C1C(=O)NC(=O)NC1=O | -0.0734
5 | O=c1[nH]c(=O)n(CCC2=CCCCC2)c(O)c1C=NCCN1CCNCC1 | -0.157
6 | CN1CCN(c2ccc(NC(=O)C(C)(C)C)cc2)CC1 | -0.363
7 | Cc1c(/C=N/O)c2ccccc2n1C | 0.0669
8 | CCN1C(=O)NC(=O)/C(=C\c2ccc(N3CCOCC3)cc2OC)C1=O | 0.512
9 | COCCCNC(=O)c1c(NC(=O)c2ccccc2Cl)n(Cc2ccccc2)c2nc3ccccc3nc12 | -0.416
10 | O=C1/C(=C/c2cc([N+](=O)[O-])ccc2Cl)N2CCC1CC2 | -0.125
11 | Cn1c(O)c(C=Nc2ccc(Cl)cc2)c(=O)n(C)c1=O | -0.288
12 | C/C(Cl)=C/CC1(CN2CCCC2=O)C(=O)NC(=O)NC1=O | -0.483
13 | CN1CCN(CCOC2c3ccccc3CSc3ccc(Cl)cc32)CC1 (stereo not given) | 1.08
14 | C=Cn1ccnc1P(=S)(c1c(C)nn(-c2ccccc2)c1C)c1nccn1C=C | -0.273
15 | COc1cc2c(cc1C=O)OCO2 | -0.411
16 | CC1(C)C2CC=C(CN3CCC(O)CC3)C1C2 (stereo not given) | -0.129
17 | O=c1c(C=Nc2cccnc2Cl)c(O)n(CCCCl)c(=O)n1C1CCCCC1 | -0.0224
18 | C=CCn1c(O)c(C(CC)=Nc2ccccc2NC(C)=O)c(=O)[nH]c1=O | -0.35
19 | Cc1cc(S(=O)(=O)NC(C)C)ccc1OCC(=O)N1CCN(Cc2ccc3c(c2)OCO3)CC1 | 0.0732
20 | CN(C)C(=O)Oc1cccc(NC(=O)N2CCOCC2)c1 | -0.136
21 | Cc1cc(/C=C2/C(=O)NC(=O)N(c3ccccc3)C2=O)c(C)n1-c1ccc(F)cc1 | -0.668
22 | CN1CCN(CC(=O)Nc2ccc(Cl)cc2C(=O)c2ccccc2)CC1 | -1.07
23 | c1ccc2c(CNC3CCCCC3)c[nH]c2c1 | active: 4.16

Row | Structure (SMILES) | z-score
24 | COC(=O)CCCNC(=O)CN1CC(c2ccccc2)CC1=O (stereo not given) | -0.0212
25 | Cc1ccc(-n2c(O)c(/C=N/N3CCOCC3)c(=O)[nH]c2=S)cc1 | -0.2
26 | CN(C)C(=O)Oc1ccc(OC(=O)c2ccccc2)cc1 | -0.265
27 | CC(=NCc1ccco1)c1c(O)n(Cc2ccccc2)c(=O)[nH]c1=O | -0.967
28 | CCCCn1c(NS(=O)(=O)c2ccccc2)c(C(=O)OCC)c2nc3ccccc3nc21 | -0.586
29 | COc1cc2c(cc1OC)CN(c1ccc([N+](=O)[O-])c(C(F)(F)F)c1)CC2 | -0.0804
30 | COC(=O)N(C)c1ccc(C(O)(C(=O)OC)C(F)(F)F)cc1 (stereo not given) | 0.0514
31 | COc1ccc(CCNCc2ccccn2)cc1OC | 0.3
32 | Cn1c(O)c(N=Nc2ccc(S(=O)(=O)N3CCOCC3)cc2)c(=O)n(C)c1=O | -0.0128
33 | N=c1sc2c(n1Cc1ccccc1)CCCC2 | 0.682
34 | CCN(CC)c1ccc(N=Cc2c(O)n(-c3ccccc3C)c(=O)[nH]c2=O)cc1 | -0.448
35 | ON1C2CCCCC2N(O)C1c1ccccc1 (stereo not given) | -0.0747
36 | O=C(O)CP(=O)(O)c1ccc(Cl)cc1 | -0.0342
37 | CCN(CC)CCN=Cc1c(O)n(Cc2ccccc2)c(=O)[nH]c1=O | 0.598
38 | COc1ccc(CC(=O)N2CCN(C)CC2)cc1 | 0.2
39 | O=c1[nH]c(=O)n(C2CCCCCC2)c(O)c1C=NCC1CCCO1 (stereo not given) | 0.706
40 | O=c1[nH]c(=O)n(C2CCCCCC2)c(O)c1C=NC1CCN(Cc2ccccc2)CC1 | -0.182
41 | Cc1ccc2c(c1)CC1(CN2C)C(=O)NC(=O)N(CCc2ccccc2)C1=O (stereo not given) | -0.273
42 | CC(=O)Nc1ccc(OC(=O)N(C)c2ccccc2)cc1 | 0.899
43 | O=C(CNC1CCCCC1)N1CCC2(CC1)OCCO2 | -0.0875
44 | N[C@@H](Cc1c[nH]c2ccccc12)c1nnc(SCc2c(F)cccc2Cl)o1 | 0.752
45 | C=C1C(O)(c2ccccc2)C2CC[N+]1(C)CC2 (stereo not given) | -0.166
46 | COc1ccc(CCNCc2ccncc2)cc1OC | 0.0616

Row | Structure (SMILES) | z-score
47 | CN1CCN(c2ccccc2N)CC1 | -0.225
48 | c1ccc(CCNCc2ccccc2)cc1 | -0.78
49 | Cc1ccccc1-n1c(C)nc2sccc2c1=O | -0.112
50 | CC(C)n1c(=O)c(C=Nc2ccc(Br)cc2)c(O)n(Cc2ccco2)c1=O | -0.156
51 | COc1cc2c(cc1OC)C(C(=O)N1CCC3(CC1)OCCO3)C(c1ccccc1F)N(C)C2=O (stereo not given) | -0.19
52 | CC1(c2ccccc2)NCCN2C(=O)CSC21 (stereo not given) | 0.0931
53 | CC(C)(C)C(O)C(Oc1ccc(Cl)cc1)n1cncn1 (stereo not given) | 1.71
54 | CC(C)CCNC(=O)c1c(N)n(Cc2ccc3c(c2)OCO3)c2nc3ccccc3nc12 | -0.182
55 | CCCCCc1nc2ccccc2c(=O)n1-c1ccccc1[N+](=O)[O-] | -0.173
56 | O=C(Oc1c(Cl)cc(Cl)c2ccccc12)N1CCCCC1 | 0.0761
57 | CCOc1ccc(C2SCC(=O)Nc3c2c(C)nn3C2CCOC(C)(C)C2)cc1 (stereo not given) | 0.145
58 | COc1cc(/C=N/NC(=O)CN2CC(c3ccccc3)CC2=O)ccc1OC(=O)N(C)C (stereo not given) | 0.00739
59 | COC(=O)C1=Nc2ccccc2/C1=C\c1c(O)n(-c2ccc(Br)cc2)c(=O)[nH]c1=O | -0.0459
60 | Cc1ccnc(-n2c(C)cc(C=C3C(=O)N(C)C(=S)N(C)C3=O)c2C)c1 | 0.6
61 | CCCC(C)C1(CC)C(=O)NC(=Nc2ccccc2OC)NC1=O (stereo not given) | 0.0351
62 | Cc1cccc(C)c1NC1=NCCCCS1 | -0.0499
63 | O=C(CCc1nc(-c2ccccc2F)no1)N1CCC2(CC1)OCCO2 | -0.284
64 | O=C(CNC(=O)OCc1ccccc1)Nc1ccc(Br)cc1C(=O)c1ccccc1 | -0.326
65 | O=C(c1cccs1)N1C2CCC1CC(O)(c1cccnc1)C2 (stereo not given) | -0.398
66 | Nc1cc(Cl)c2nonc2c1[N+](=O)[O-] | -0.31
67 | O=C(CN1CCCC1=O)N1CCOCC1 | 0.264
68 | Cc1ccc2c(c1)CCCN2N=O | -0.379
69 | Cc1cc(C=C2C(=O)NC(=O)NC2=O)c(C)n1-c1ccc2c(c1)OCO2 | -0.244

Row | Structure (SMILES) | z-score
70 | CCOC(=O)N1CCC(NC(=O)CCc2nc(C3=CCN(C)CC3)no2)CC1 | -0.113
71 | CNP1(NC)=NC(C(F)(F)F)=NC(C(F)(F)F)=N1 | 0.0266
72 | CCCCCc1nc2c(c(=O)c3ccccc3n2C)c(=O)n1C1CCCCCC1 | -0.518
73 | CN1CCc2nc3sc(C#N)c(N)c3c(-c3cccs3)c2C1 | 0.249
74 | N#Cc1cc(F)c(N2CCNCC2)cc1Cl | 2.17
75 | CN1CCN(S(=O)(=O)c2ccc(Cl)nc2)CC1 | -0.0958
76 | O=C(c1cnn2c(C(F)(F)F)cc(-c3ccccc3)nc12)N1CCC2(CC1)OCCO2 | 0.124
77 | CCCC[N+]12CCC(CC1)C(C(=O)c1cccs1)C2 (stereo not given) | 0.482
78 | Cc1ccc(C(=O)NC(O)C(Cl)(Cl)Cl)cc1 (stereo not given) | 0.903
79 | COc1ccc(NC(c2ccccc2F)P(=O)(Oc2ccccc2)Oc2ccccc2)cc1 (stereo not given) | -0.208
80 | COCCNP(=O)(c1ccccc1)c1nc2ccccc2s1 (stereo not given) | 0.656
81 | CCC(=NCC1CCCO1)c1c(O)n(-c2ccccc2)c(=O)[nH]c1=O (stereo not given) | 1.02
82 | OC12Oc3ccccc3C=C1N1CCC2CC1 (stereo not given) | 2.17
83 | CCN1CCC(O)(c2ccccc2)C(C(=O)c2ccccc2)C1 (stereo not given) | -0.0511
84 | O=C(COc1ccc(S(=O)(=O)N2CCOCC2)cc1)N1CCN(Cc2ccc3c(c2)OCO3)CC1 | -1.18
85 | CCCC/C(=N\O)c1c[nH]c2ccccc12 | -0.111
86 | CCCCn1c(O)c(C(C)=NCc2cc(OC)cc(OC)c2)c(=O)[nH]c1=O | -2.52
87 | CCCCCCn1c(O)c(C=NCCN2CCCCC2)c(=O)[nH]c1=O | 0.0424
88 | Cc1nc2cc(C(=O)N3CCC4(CC3)OCCO4)ccc2n1-c1ccc(Br)cc1 | 0.591
89 | O=C(c1ccco1)c1cn(Cc2ccc(Cl)cc2)c2ccccc12 | -0.345
90 | Cn1c(N2CCNCC2)nc2ccccc21 | 0.0642
91 | CCCN1C2CCCC1CC(NC(C)=O)C2 (stereo not given) | -0.0343
92 | CCS(=O)(=O)N1CCC(C(=O)N2CCC3(CC2)OCCO3)CC1 | 0.00257

Row | Structure (SMILES) | z-score
93 | CCN1CCN(C(=O)COc2ccc3c(c2)C(=O)CC2(CCN(C(C)=O)CC2)O3)CC1 | -0.0875
94 | CCC1(CCc2ccncc2)C(=O)NC(=O)NC1=O | -0.123
95 | CCC(=NCc1ccco1)c1c(O)n(-c2ccc(C)cc2)c(=O)[nH]c1=O | -0.0153
96 | c1ccc2c(c1)CSc1ccccc1C2C1=NCCN1 (stereo not given) | 0.812
97 | COC(=O)C1C2c3ccccc3OC1(C)N=c1s/c(=C/c3cnn(C)c3C)c(=O)n12 (stereo not given) | -0.497
98 | Cc1ccc(-c2nn(Cc3ccccc3)cc2C=O)cc1C | -0.254
99 | CC1CCC(C(=O)NC(C(=O)N2CCC3(CC2)OCCO3)C(C)C)CC1 (stereo not given) | -0.0686
100 | COc1cc2[nH]c(=O)n(-c3ccccc3)c(=O)c2cc1OC | -0.252
101 | CCOP(=O)(OCC)C(NC(C)=O)C(Cl)(Cl)Cl (stereo not given) | -0.0168
102 | Clc1cccc(Cl)c1C1N2CCCN12 (stereo not given) | -0.48
103 | CC(O)(CS(=O)(=O)c1ccccc1)C(=O)Nc1cccc(C(F)(F)F)c1 (stereo not given) | -0.0169
104 | O=C(COC(=O)c1ccc(O)cc1)Nc1ccc(Cl)cc1C(=O)c1ccccc1 | -0.606
105 | CC1CCCC(C2(O)C(=O)Nc3ccccc32)C1=O (stereo not given) | 0.275
106 | CC12CN3CC(C)(CN(C1)C3c1ccco1)C2=O (stereo not given) | 0.289
107 | O=[P+](Cc1ccccc1)Cc1ccccc1 | -0.245
108 | CCCCCSc1cc(OC)c(CCN)cc1OC | 1.67
109 | COc1ccc(C(O)c2ccccc2OP(=O)(N(C)C)N(C)C)cc1 (stereo not given) | 0.00525
110 | O=C(NCC(c1cccnc1)N1CCN(c2ccccc2)CC1)Oc1ccccc1 (stereo not given) | -0.18
111 | CN=C(SCc1cc2c(cc1Cl)OCO2)c1c(O)n(C)c(=O)n(C)c1=O | -0.109
112 | COc1ccc2c(c1)CC1(CN2C)C(=O)NC(=O)N(c2ccc(C)cc2)C1=O (stereo not given) | 0.876
113 | COc1ccc(OC)c(CN2CCN(C(=O)COc3cccc(C)c3)CC2)c1 | -0.329
114 | CCOC(=O)c1c(C)n(Cc2ccc3c(c2)OCO3)c2ccc(O)cc12 | -0.0535
115 | CC(C)OC(=O)c1c(N)n(CC2CCCO2)c2nc3ccccc3nc12 (stereo not given) | -1.51
